This is one part of the list. Rule as the data show it: active = 3.2 or more and inactive = the rest. The signal is at background level for most entries.
B1: MYOM3_Y343 (peptide)
chain: EDEGLYMVRVP
B2: NBN_Y679 (peptide)
chain: GINDDYGQLKN
B3: NCAPD2_Y1325 (peptide)
chain: STGSRYQPLAS
B4: NBEAL2_Y2748 (peptide)
chain: SGETEYNPTEA
B5: NARS2_Y138 (peptide)
chain: RHPLEYLRQYP
B6: NAXD_Y85 (peptide)
chain: GGCQEYTGAPY
B7: NBEAL2_Y1835_R1839C (peptide)
chain: SSAETYSRMCL
B8: NCF2_Y125_A128V (peptide)
chain: ACEVLYNIVFM
B9: NDRG2_Y47_T45S (peptide)
chain: SVESPYGSVTF
B10: MYOF_Y1137_YF (peptide)
chain: NFDRVYIFHLR
B11: MYOC_Y479_P481T (peptide)
chain: SSMIDYNTLEK
B12: NCF1_Y41 (peptide)
chain: SEKVVYRRFTE
B13: NAXD_Y85_G81S_YF (peptide)
chain: GSCQEYTGAPF
B14: NCAPD2_Y1325_T1321S (peptide)
chain: SSGSRYQPLAS
B15: NAMPT_Y175_L176S (peptide)
chain: KILAKYSLETS
B16: MYOF_Y1705_G1701A_YF (peptide)
chain: FAGRDYSLDEF
B17: MYOF_Y1705_YF (peptide)
chain: FGGRDYSLDEF
B18: NCR1_Y84_D87Y (peptide)
chain: NKVKFYIPYMN
B19: MYOF_Y1137_V1136I (peptide)
chain: NFDRIYIYHLR

molecular target: SHP2 C-SH2 domain E139D; experiment: enrichment score (SH2-bound / input frequency) (ratio); bacterial display of known human phosphotyrosine sites (pTyr-Var adds point mutants) read by sequencing; higher = stronger binding; tyrosines were phosphorylated by kinases first; details: peptide library: pTyr-Var
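Also: displayed peptides selected on beads carrying the immobilized SH2 domain, with library peptides lacking any tyrosine serving as negative controls.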

Enrichment score, active:
B10 3.29
B18 3.97

Enrichment score, inactive:
B1 0.729
B2 0.427
B3 0.765
B4 0.483
B5 1.51
B6 0.847
B7 0.727
B8 1.36
B9 0.755
B11 0.601
B12 0.241
B13 0.618
B14 0.603
B15 1.4
B16 1.03
B17 0.741
B19 1.97

molecular target: SHP2 C-SH2 domain wild-type; experiment: as above; details: peptide library: pTyr-Var

Enrichment score, inactive:
B1 0.714
B2 0.63
B3 0.666
B4 0.467
B5 1.85
B6 0.767
B7 0.741
B8 1.27
B9 0.635
B10 2.62
B11 0.533
B12 0.312
B13 0.844
B14 0.579
B15 1.16
B16 0.822
B17 0.719
B19 3.09

Enrichment score, active:
B18 3.94

molecular target: SHP2 N-SH2 domain L43F; experiment: as above; details: peptide library: pTyr-Var

Enrichment score, active:
B18 3.53
B19 4.2

Enrichment score, inactive:
B1 0.743
B2 0.37
B3 0.608
B4 0.446
B5 1.43
B6 0.777
B7 0.716
B8 1.35
B9 0.698
B10 2.91
B11 0.424
B12 0.323
B13 0.483
B14 0.488
B15 1.19
B16 0.947
B17 0.836

molecular target: SHP2 N-SH2 domain T42A; experiment: as above; details: peptide library: pTyr-Var

Enrichment score, inactive:
B1 0.627
B2 0.624
B3 0.645
B4 0.418
B5 1.24
B6 0.738
B7 0.667
B8 1.29
B9 0.718
B10 2.64
B11 0.577
B12 0.436
B13 0.584
B14 0.515
B15 1.03
B16 0.819
B17 0.761
B19 2.13

Enrichment score, active:
B18 3.38

molecular target: SHP2 N-SH2 domain T52S; experiment: as above; details: peptide library: pTyr-Var

Enrichment score, active:
B18 3.34
B19 5.2

Enrichment score, inactive:
B1 0.695
B2 0.64
B3 0.598
B4 0.547
B5 1.18
B6 0.527
B7 0.676
B8 1.03
B9 0.77
B10 2.33
B11 0.704
B12 0.386
B13 0.594
B14 0.606
B15 1.24
B16 0.779
B17 0.831

molecular target: SHP2 N-SH2 domain wild-type; experiment: as above; details: peptide library: pTyr-Var

Enrichment score, inactive:
B1 0.929
B2 0.603
B3 0.685
B4 0.481
B5 1.53
B6 0.923
B7 0.906
B8 1.92
B9 0.864
B10 2.58
B11 0.586
B12 0.386
B13 0.622
B14 0.669
B15 1.03
B16 1.13
B17 0.903
B19 2.49

Enrichment score, active:
B18 3.63

Reference: the supplement of paper PMC10369915
